From PubChem BioAssay AID2451 (National Center for Advancing Translational Sciences (NCATS), 2010)
Hit rate of the full screen: of about 290,000 compounds, about 2,100 (0.72%) were called active. Inconclusive results, whose numbers are uncertain, are shown with a selection of clear calls. Calls come from the whole dose curve; as a rule, active = well fitted inhibition curve with a large enough effect; inconclusive = small, poorly fitted or top-dose-only effect, or effect the other way; inactive = flat fitted curve, though single readings scatter. A potency beside an inconclusive call is a rough fit, not a confirmed value.

Target: Fructose-bisphosphate aldolase (Giardia intestinalis (strain ATCC 50803 / WB clone C6)) (UniProt A8B2U2)
UniProt A8B2U2, sequence (A8B2U2 whole entry, looked up): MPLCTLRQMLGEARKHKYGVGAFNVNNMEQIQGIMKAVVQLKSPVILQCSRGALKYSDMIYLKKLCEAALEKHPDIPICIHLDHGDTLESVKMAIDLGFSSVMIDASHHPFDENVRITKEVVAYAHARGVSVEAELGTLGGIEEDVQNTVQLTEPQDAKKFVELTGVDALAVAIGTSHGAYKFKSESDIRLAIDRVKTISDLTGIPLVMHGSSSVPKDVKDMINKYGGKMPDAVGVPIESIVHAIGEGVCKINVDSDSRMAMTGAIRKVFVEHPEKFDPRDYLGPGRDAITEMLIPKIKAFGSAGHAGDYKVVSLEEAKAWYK
Experiment: qHTS Assay for Inhibitors of Fructose-1,6-bisphosphate Aldolase from Giardia Lamblia; note: nearly all actives have a fitted effect of over 55% in size
Settings: purified Giardia FBPA; activity, negative = inhibition: at 59.6 µM (top of the series) unless noted
Summary of the method: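 Giardia FBPA (40 nM reagent) was preincubated 10 min at RT with compound (up to 57.5 uM final), then substrate plus GAPDH/TPI/NAD/arsenate coupling system with diaphorase/resazurin was added; resorufin fluorescence (525/598 nm) was read after 20 min.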
% is set by controls: 0 for no effect and ±100 for the full control effect; potency is the fitted concentration of half-maximal effect; tags give direction and shape of the fitted curve.

Question: Which Potency does the source give for `COCCN1CCc2[nH]c(=S)[nH]c(=O)c2C1` here?
Answer: inconclusive: 17.7 µM [inhibitor, partial curve]

Question: Which Potency does the source give for `CCCc1cc(=O)n2[nH]c(NC(=O)c3ccco3)nc2n1` here?
Answer: active: 15.8 µM

Question: For `CCN(CC#CCC1(O)c2ccccc2-c2ccccc21)CCO`, which Potency is on record?
Answer: inconclusive: 15.8 µM [inhibitor, single point]

Question: Which Potency does the source give for `CN(C)CCOCCOc1ccc(Cl)cc1Br` here?
Answer: inconclusive: 19.9 µM [inhibitor, partial curve]

Question: With `O=C(Nc1ccccc1)Nc1cccc2nsnc12` as the molecule, how does the Potency read?
Answer: inconclusive: 19.9 µM [inhibitor, partial curve]

Question: With `COc1ccc(Cl)cc1NC(=O)CN1CCc2ccccc2C1` as the molecule, how does the “activity, negative = inhibition” value read?
Answer: inactive: -7.68%

Question: Which Potency does the source give for `Oc1ccc2ccccc2c1C=Nc1ccc(Cl)cn1` here?
Answer: inconclusive: 19.9 µM [inhibitor, partial curve]

Question: Which Potency does the source give for `Cc1cccc(NC(=O)C(Cc2ccccc2)c2nn[nH]n2)c1C` (configuration not stated) here?
Answer: inconclusive: 12.6 µM [inhibitor, partial curve]

Question: With `O=C(O)c1ccc(Cn2cnc3scc(-c4ccccc4)c3c2=O)cc1` as the molecule, how does the Potency read?
Answer: inconclusive: 17.7 µM [activator, partial curve]

Question: `CCOC(=O)NNc1nncc2ccccc12` was tested. Which Potency did it give?
Answer: inconclusive: 11.2 µM [inhibitor, partial curve]

Question: With `O=[N+]([O-])c1ccc(CN2CCN(c3ccc([N+](=O)[O-])cc3)CC2)cc1` as the molecule, how does the Potency read?
Answer: inconclusive: 15.8 µM [inhibitor, partial curve]

Question: For `O=C(NCc1ccccc1)C1=C[C@@H](c2ccccc2)C[C@@H](OCc2ccc(CO)cc2)O1`, which Potency is on record?
Answer: inconclusive: 19.9 µM [inhibitor, partial curve]

Question: How did the Potency turn out when `CCc1ccc(CN(C)Cc2nc(Cc3cccc(C(F)(F)F)c3)no2)nc1` was run?
Answer: inconclusive: 17.7 µM [inhibitor, single point]

Question: For `O=[N+]([O-])c1cccc(S(=O)(=O)c2ccc(N3CCCCC3)c([N+](=O)[O-])c2)c1`, which “activity, negative = inhibition” value is on record?
Answer: inactive: 0.971%

Question: For `CC(CCc1ccccc1)NC(=O)CN1CCN(c2ccc(O)cc2)CC1` (configuration not stated), which Potency is on record?
Answer: inconclusive: 15.8 µM [inhibitor, partial curve]

Question: `COc1ccc(OC)c2[nH]c(=O)c(CCNS(=O)(=O)c3ccccc3)cc12` was tested. Which Potency did it give?
Answer: inconclusive: 15.8 µM [inhibitor, single point]

Question: Which Potency does the source give for `O=C(NNC(=O)c1cccnc1)Nc1ccc(Cl)c(Cl)c1` here?
Answer: inconclusive: 5.61 µM [inhibitor, single point]

Question: For `Cc1ccc(C(C)C)cc1OCCOCCN1CCCC1`, which Potency is on record?
Answer: inconclusive: 15.8 µM [inhibitor, partial curve]

Question: Which Potency does the source give for `Cc1ccc(/C=C/C(=O)Nc2nn[nH]n2)o1` here?
Answer: inconclusive: 17.7 µM [inhibitor, partial curve]

Question: Which Potency does the source give for `Cc1cc(OCC(=O)NNC(=O)c2cnccn2)cc(C)c1Cl` here?
Answer: inconclusive: 35.5 µM [activator, partial curve]

Question: How did the “activity, negative = inhibition” value turn out when `c1ccc(-c2ccc(CNC3CC3)cc2)cc1` was run?
Answer: inactive: -21.8%

Question: With `Nc1c(C(=O)NCc2ccco2)c2nc3ccccc3nc2n1Cc1ccccc1` as the molecule, how does the Potency read?
Answer: inconclusive: 12.6 µM [inhibitor, partial curve]

Question: Which “activity, negative = inhibition” value does the source give for `CNc1nc(SCc2ccccc2Cl)nc2c1CCCC2` here?
Answer: inactive: 11.1%

Question: With `CC(=O)c1cccc(NC(=O)c2cnn(-c3ccccc3)c2C)c1` as the molecule, how does the Potency read?
Answer: inconclusive: 28.2 µM [inhibitor, single point]

Question: `COC(=O)c1c(-c2ccc(C)cc2)csc1NC(=O)C1CC=CCC1C(=O)O` (configuration not stated) was tested. Which “activity, negative = inhibition” value did it give?
Answer: inactive: 17.1%

Question: With `Cc1ccc(C2=NC(C(F)(F)F)(C(F)(F)F)c3c(n(-c4ccc(F)cc4)c(=O)[nH]c3=O)N2)cc1` as the molecule, how does the “activity, negative = inhibition” value read?
Answer: inactive: 2.64%

Question: Which “activity, negative = inhibition” value does the source give for `O=C(c1ccc(Oc2ccc(C(F)(F)F)cc2[N+](=O)[O-])cc1)N1CCOCC1` here?
Answer: inactive: 1.19%

Question: For `CCc1nc(Nc2cccc(F)c2)c2oc3ccccc3c2n1`, which Potency is on record?
Answer: inconclusive: 28.2 µM [inhibitor, single point]

Question: `CC(C)[C@H](NC(=O)c1ccccc1Cl)C(=O)Nc1nc(-c2ccccn2)cs1` was tested. Which Potency did it give?
Answer: inconclusive: 25.1 µM [inhibitor, single point]

Question: `Cc1cc(=O)oc2c(O)c(O)ccc12` was tested. Which Potency did it give?
Answer: active: 7.06 µM

Question: Which Potency does the source give for `N#CC1=C(S)N(c2ccccc2)C(c2cccs2)NC1=O` (configuration not stated) here?
Answer: active: 6.31 µM

Question: How did the Potency turn out when `CCOc1cc(/C=C2\NC(=S)N(C)C2=O)ccc1OCc1ccc(C(=O)O)cc1` was run?
Answer: inconclusive: 8.91 µM [inhibitor, partial curve]

Question: How did the Potency turn out when `COc1cccc(CN2CCSCC2)c1` was run?
Answer: inconclusive: 22.3 µM [inhibitor, partial curve]

Question: How did the “activity, negative = inhibition” value turn out when `Cc1ccc(Nc2ccccc2)nn1` was run?
Answer: inactive: 0.209%

Question: `CCS(=O)(=O)c1nc2ccccc2n1Cc1ccccc1Cl` was tested. Which “activity, negative = inhibition” value did it give?
Answer: inactive: -6.14%

Question: Which Potency does the source give for `O=C(Nc1nnc(S(=O)(=O)N2CCOCC2)s1)c1cccc(F)c1` here?
Answer: inconclusive: 17.8 µM [inhibitor, partial curve]

Question: With `COc1ccc(CNC(=O)[C@H](C)NC(=O)[C@@H]2Cc3ccccc3CN2)cc1` as the molecule, how does the Potency read?
Answer: inconclusive: 31.6 µM [inhibitor, single point]

Question: For `CCOc1cccc2sc(N(CCN(CC)CC)C(=O)c3ccc(S(=O)(=O)N4CCCC4)cc3)nc12`, which Potency is on record?
Answer: inconclusive: 17.8 µM [inhibitor, partial curve]

Question: Which Potency does the source give for `C=CCNC(=S)NN=C1CCC(c2ccccc2)CC1` (configuration not stated) here?
Answer: active: 7.94 µM

Question: For `COC(=O)C(N)Cc1ccc(O)c(O)c1` (configuration not stated), which Potency is on record?
Answer: inconclusive: 17.7 µM [inhibitor, single point]

Question: Which “activity, negative = inhibition” value does the source give for `CCOP(=O)(OCC)C(=Cc1cc(C(C)(C)C)c(O)c(C(C)(C)C)c1)P(=O)(OCC)OCC` here?
Answer: inactive: 0.7%

Question: How did the Potency turn out when `COC(=O)c1ccc(C(=O)NC(=S)Nc2nc3c(s2)CC(C)CC3)cc1` (configuration not stated) was run?
Answer: inconclusive: 3.15 µM [inhibitor, full curve, poor fit]

Question: `CCS(=O)(=O)N1CCN(C2CCC(c3ccccc3)CC2)CC1` (configuration not stated) was tested. Which Potency did it give?
Answer: inconclusive: 25.1 µM [inhibitor, partial curve]

Question: How did the Potency turn out when `Cc1cccc(Cl)c1OCCCn1ccnc1` was run?
Answer: inconclusive: 39.8 µM [inhibitor, single point]

Question: `CC[C@]1(c2ncc[nH]2)Cc2ccccc2O1` was tested. Which “activity, negative = inhibition” value did it give?
Answer: inactive: -3.16%

Question: How did the Potency turn out when `O=C(O)c1cccc(Nc2c([N+](=O)[O-])c(=O)oc3ccccc23)c1` was run?
Answer: inconclusive: 14.1 µM [activator, partial curve]

Question: Which Potency does the source give for `COc1cccc(/C=N/NC(=O)c2c(C)nc3ccc(Br)cn23)c1` here?
Answer: inconclusive: 17.7 µM [inhibitor, partial curve]

Question: For `O=c1[nH]c2ccc(S(=O)(=O)N3CCCCC3)cc2s1`, which Potency is on record?
Answer: inconclusive: 22.4 µM [inhibitor, partial curve]

Question: Which “activity, negative = inhibition” value does the source give for `O=C(Nc1cn(-c2ccccc2)nc1-c1cccs1)c1ccco1` here?
Answer: inactive: 0.219%

Question: For `CCC(=O)c1ccc(OCC(=O)NCC2(N3CCCCC3)CCCCC2)cc1`, which “activity, negative = inhibition” value is on record?
Answer: inactive: 4.81%

Question: Which Potency does the source give for `Oc1ccc(/C=N/NC(=S)Nc2cccnc2)cc1O` here?
Answer: inconclusive: 8.89 µM [inhibitor, partial curve]

Question: `CCCN1C[C@H](CSC)C[C@H]2c3cccc4[nH]cc(c34)C[C@@H]21` was tested. Which “activity, negative = inhibition” value did it give?
Answer: inactive: -6.92% [at 21.7 µM]

Question: For `Cc1cccc(NC(=O)c2cccc(C(=O)Nc3cccc(C)n3)c2)n1`, which Potency is on record?
Answer: inconclusive: 25.1 µM [inhibitor, partial curve]

Question: How did the Potency turn out when `O=c1c(-c2cc(O)c(O)c(O)c2)coc2cc(O)c(O)c(O)c12` was run?
Answer: active: 5 µM

Question: How did the Potency turn out when `Cc1ccc(C)c(N2CCN(C(=O)CCCn3ncn4c(cc5occc54)c3=O)CC2)c1` was run?
Answer: inconclusive: 10 µM [activator, partial curve, poor fit]

Question: For `CCC(C)n1cnc2c(c1=O)c1nc3ccccc3nc1n2-c1ccc2c(c1)OCCO2` (configuration not stated), which “activity, negative = inhibition” value is on record?
Answer: inactive: -3.28%

Question: For `C1=C(c2ccccc2)Nc2nnnn2C1`, which Potency is on record?
Answer: inconclusive: 35.4 µM [activator, single point]

Question: With `COc1ccc(C2C(C(=O)N3CCN(c4ccccn4)CC3)CCC(=O)N2c2ccc(OC)cc2)cc1` (configuration not stated) as the molecule, how does the “activity, negative = inhibition” value read?
Answer: inactive: 0.729%

Question: With `O=C(NC(=S)Nc1cccc2c(O)cccc12)c1ccco1` as the molecule, how does the Potency read?
Answer: inconclusive: 22.4 µM [inhibitor, single point]

Question: How did the Potency turn out when `CCN(CC)c1ccc(C=Nc2ccc(N(C)C)cc2)c(O)c1` was run?
Answer: inconclusive: 12.6 µM [inhibitor, partial curve]

Question: `O=C(Nc1cccc2nsnc12)C1CC(=O)N(c2ccccc2)C1` (configuration not stated) was tested. Which Potency did it give?
Answer: inconclusive: 15.8 µM [inhibitor, single point]

Question: How did the “activity, negative = inhibition” value turn out when `COc1cc(OC)cc(C(=O)Oc2ccc(/C=N/Nc3nc4ccccc4s3)cc2OC)c1` was run?
Answer: inactive: -12.5%

Question: With `CSc1nsc(/C=C/Nc2ccc(C(=O)O)cc2)c1C#N` as the molecule, how does the Potency read?
Answer: inconclusive: 15.8 µM [inhibitor, single point]

Question: For `CCNc1nc2[nH]c(=O)c3c(c2s1)OC(N)=C(C#N)C3c1ccc(C)cc1` (configuration not stated), which Potency is on record?
Answer: inconclusive: 17.7 µM [inhibitor, partial curve]

Question: For `COCCN1CCn2c(nc3cc(Nc4nnc(C)c5ccccc45)ccc32)C1`, which Potency is on record?
Answer: inconclusive: 17.7 µM [inhibitor, single point]

Question: `COc1cc(CN2CCC(C(=O)N3CCN(c4ccccc4F)CC3)CC2)cc(OC)c1O` was tested. Which Potency did it give?
Answer: inconclusive: 19.9 µM [inhibitor, partial curve]

Question: Which Potency does the source give for `CCOC(=O)c1nn(-c2ccc(OC)cc2)c(=O)c2c(N)scc12` here?
Answer: inconclusive: 0.561 µM [inhibitor, full curve]

Question: With `COc1ccc(OC)c2c1C(=O)c1ccccc1C2=O` as the molecule, how does the Potency read?
Answer: inconclusive: 25.1 µM [inhibitor, single point]

Question: How did the Potency turn out when `CCOC(=O)C1CCCN(Cc2c(F)cccc2Cl)C1` (configuration not stated) was run?
Answer: inconclusive: 17.7 µM [inhibitor, single point]

Question: `O=C1[C@H]2O[C@@H]2[C@@H](O)[C@H]2[C@H]1CCn1c(=O)n(Cc3cc4c(cc3Cl)OCO4)c(=O)n12` was tested. Which activity, negative = inhibition did it give?
Answer: inactive: 0.641% [at 12.9 µM]

Question: With `Cc1cc(/C=N/n2cnnc2)c(C)n1-c1ccc(OCc2ccccc2F)cc1` as the molecule, how does the “activity, negative = inhibition” value read?
Answer: inactive: 2.29%

Question: With `CCN1C(=O)CC(N2CCOCC2)C1=O` (configuration not stated) as the molecule, how does the “activity, negative = inhibition” value read?
Answer: inactive: 3.06%
